# From the supplement of paper PMC2702839
# Where a name gives a salt, the structure may show the parent alone. Some of the results follow.
# Test system: Schistosoma mansoni schistosomula
# Assay: phenotypic hit in primary schistosomula screen (any phenotype vs DMSO control) (binary (1 = hit, 0 = no phenotype)); higher = active (phenotype induced)
# Conditions: 1 µM; time (d): 7
row,Compound,phenotypic hit
1,CON [methoxyamine hydrochloride],inactive: 0
2,CCN(CCO)CCCC(C)Nc1ccnc2cc(Cl)ccc12 (centres undefined) [hydroxychloroquine sulfate],inactive: 0
3,CCOC(=O)NNc1nncc2ccccc12 [todralazine hydrochloride],inactive: 0
4,CCCCN1CCCCC1C(=O)Nc1c(C)cccc1C (centres undefined) [bupivacaine hydrochloride],inactive: 0
5,CC1(C)[C@@H](O)CC[C@]2(C)[C@H]3C(=O)C=C4[C@H]5C[C@@](C)(C(=O)O)CC[C@]5(C)CC[C@@]4(C)[C@]3(C)CC[C@@H]12 [18alpha-glycyrrhetinic acid],inactive: 0
6,CC(=O)O[C@@H]1CC2C(C)(CC[C@H](O)C2(C)C)C2CC[C@]3(C)C(=CC(=O)O[C@H]3c3ccoc3)C21C (stereo partly drawn) [3beta-hydroxydeoxodihydrodeoxygedunin],inactive: 0
7,O=c1c(-c2cc(O)c(O)c(O)c2)coc2cc(O)c(O)c(O)c12 [irigenol],inactive: 0
8,CC[C@@H](C(=O)[C@@H](C)[C@@H](O)[C@H](C)CCc1ccc(C)c(O)c1C(=O)O)[C@H]1O[C@](CC)([C@H]2CC[C@](O)(CC)[C@H](C)O2)C[C@@H]1C [lasalocid sodium],active: 1
9,CC(COc1ccccc1)NC(C)C(O)c1ccc(O)cc1 (centres undefined) [isoxsuprine hydrochloride],inactive: 0
10,Cc1cc(=O)oc2c(O)c(O)ccc12 [4-methyldaphnetin],inactive: 0
11,CC12CCCC(O)(C1)C1CC(C)(C)C1CC2 (stereo not drawn) [beta-caryophyllene alcohol],inactive: 0
12,COc1cc(OC)c(-c2c(OC)cc(OC)cc2OC)c(OC)c1 [difucol hexamethyl ether],inactive: 0
13,C#C[C@]1(O)CC[C@H]2[C@@H]3CCC4=C(CCC(=O)C4)[C@H]3CC[C@@]21C [norethynodrel],inactive: 0
14,CC[N+](CC)(CC)CCOc1cccc(OCC[N+](CC)(CC)CC)c1OCC[N+](CC)(CC)CC [Gallamine triethiodide],inactive: 0
15,CCOC(=O)[N-]c1c[n+](N2CCOCC2)no1 [molsidomine],active: 1
16,CC(C)(C)NCC(O)c1cc(O)cc(O)c1 (centres undefined) [terbutaline hemisulfate],inactive: 0
17,COc1ccc2c(c1)O[C@@H]1COc3cc(OC)c(OC)cc3[C@@H]1C2=O [mundoserone],inactive: 0
18,NCc1ccc(S(N)(=O)=O)cc1 [mafenide hydrochloride],inactive: 0
19,CN[C@@H]1[C@H](O[C@H]2[C@H](O[C@H]3[C@H](O)[C@@H](O)[C@H](NC(=N)N)[C@@H](O)[C@@H]3NC(=N)N)O[C@@H](C)[C@]2(O)CO)O[C@@H](CO)[C@H](O)[C@H]1O [dihydrostreptomycin sulfate],inactive: 0
